This is one part of the list. The full chains were built here from the parent and the listed change. Inactive controls read about 0.05.

The record followed here is the supplement of paper PMC12217912.

The chains are these.
B1: TEV protease; numbered along this chain (parent)
chain: MGESLFKGPRDYNPISSSICHLTNESDGHTTSLYGIGFGPFIITNKHLFRRNNGTLVVQSLHGVFKVKDTTTLQQHLVDGRDMIIIRMPKDFPPFPQKLKFREPQREERICLVTTNFQTKSMSSMVSDTSCTFPSGDGIFWKHWIQTKDGQCGSPLVSTRDGFIVGIHSASNFTNTNNYFTSVPKNFMELLTNQEAQQWVSGWRLNADSVLWGGHKVFMVKPEEPFQPVKEATQL
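Note: Bxb1 expression induced with 0.2% (w/v) L-rhamnose at OD600 near 0.5, cultures sampled hourly, flipped fraction per protease–substrate barcode pair counted by paired-end Illumina sequencing.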

The assay covers variants of B1. The assay is described as follows: raw area under fraction-flipped curve 0-4 h after induction (AUC4h, not background-subtracted), DNA-recorder readout of cleavage of the substrate (dimensionless); higher = more cleavage of the substrate by the protease variant. Conditions: temperature: 34 °C; time window: 0-4 h after rhamnose induction.
Consider MGESLFKGPRDYNPISSSICHLTNESDGHTTSLYGIGFGPFIITNKHLFRRNNGTLVVQSLHGVFKVKDTTTLQQHLVDGRDMIIIRMPKDFPPFPQKLKFREPQREERICLVTTNFQTKSMSSMVSDTSCTFPSGDGIFWKHWIQTKDGQCGSPLVSTRDGFIVGIHSASNFTNTNNYFTSVPKNFMELLTNQEAQQWVSGWRLNADSVLWSGHKVFMVKPEEPFQPVKEATQL [G213S], for which the “area with substrate ENLYFQH” value came to 0.0646, the “area with substrate ENLYFQI” value is 0.053, the “area with substrate ENLYFQK” value turned out to be 0.061 and the “area with substrate ENLYFQL” value is 0.048. Further, the “area with substrate ENLYFQM” value was 0.0525, the “area with substrate ENLYFQN” value was 0.045, the “area with substrate ENLYFQR” value is 0.0544 and the “area with substrate ENLYFQS” value worked out at 0.0761. In addition, the “area with substrate ENLYFQT” value stood at 0.0524, the “area with substrate ENLYFQV” value is 0.0608 and the “area with substrate ENLYFQY” value is 0.0626.
Turning to MGESLFKGPRDYNPISSSICHLTNESDGHTTSLYMIGFGPFIITNKHLFRRNNGTLVVQSLHGVFKVKDTTTLQQHLVDGRDMIIIRMPKDFPPFPQKLKFREPQREERICLVTTNFQTKSMSSMVSDTSCTFPSGDGIFWKHWIQTKDGQCGSPLVSTRDGFIVGIHSASNFTNTNNYFTSVPKNFMELLTNQEAQQWVSGWRLNADSVLWGGHKVFMVKPEEPFQPVKEATQL [G35M], the “area with substrate ENLYFQS” value was found to be 0.0435.
Turning to MGESLFKGPRDYNPISSSICHLTNESDGHTTSLYLIGFGPFIITNKHLFRRNNGTLVVQSLHGVFKVKDTTTLQQHLVDGRDMIIIRMPKDFPPFPQKLKFREPQREERICLVTTNFQTKSMSSMVSDTSCTFPSGDGIFWKHWIQTKDGQCGSPLVSTRDGFIVGIHSASNFTNTNNYFTSVPKNFMELLTNQEAQQWVSGWRLNADSVLWGGHKVFMVKPEEPFQPVKEATQL [G35L], the “area with substrate ENLYFQL” value was determined as 0.0413, the “area with substrate ENLYFQS” value amounted to 0.0473, the “area with substrate ENLYFQT” value worked out at 0.0509 and the “area with substrate ENLYFQY” value is 0.0434.
In the case of MGESLFKGPRDYNPISSSICHLTNESDGHTTSLYGIGFGPFIITNKHLFRRNNGTLVVQSLHGVFKVKDTTTLQQHLVDGRDMIIIRMPKDFPPFPQKLKFREPQREERICLVTTNFQTKSMSSMVSDTSCTFPSGDGIFWKHWIQTKDGQCGSPLVSTRDGFIVGIHSASNFTNTNNYFTSVPKNFMELLTNQEAQQWVSGWRLNADSVLWGGHKVHMVKPEEPFQPVKEATQL [F218H], the “area with substrate ENLYFQI” value was found to be 0.0584, the “area with substrate ENLYFQL” value worked out at 0.0539, the “area with substrate ENLYFQM” value amounted to 0.0849 and the “area with substrate ENLYFQN” value is 0.085. Also, the “area with substrate ENLYFQP” value turned out to be 0.0484, the “area with substrate ENLYFQQ” value was 0.065, the “area with substrate ENLYFQR” value was 0.0596 and the “area with substrate ENLYFQS” value amounted to 0.106. Also, the “area with substrate ENLYFQT” value turned out to be 0.0595, the “area with substrate ENLYFQV” value was found to be 0.0382 and the “area with substrate ENLYFQW” value turned out to be 0.0615.
Regarding MGESLFKGPRDYNPISSSICHLTNESDGHTTSLYGIGFGPFIITNKHLFRRNNGTLVVQSLHGFFKVKDTTTLQQHLVDGRDMIIIRMPKDFPPFPQKLKFREPQREERICLVTTNFQTKSMSSMVSDTSCTFPSGDGIFWKHWIQTKDGQCGSPLVSTRDGFIVGIHSASNFTNTNNYFTSVPKNFMELLTNQEAQQWVSGWRLNADSVLWGGHKVFMVKPEEPFQPVKEATQL [V64F], the “area with substrate ENLYFQS” value amounted to 0.104.
For the variant MGESLFKGPRDYNPISSSICHLTNESDGHTTSLYGIGFGPFIITNKHLFRRNNGTLVVQSLHGVFKVKDTTTLQQHLVDGRDMIIIRMPKDFPPFPQKLKFREPQREERICLVTTNFFTKSMSSMVSDTSCTFPSGDGIFWKHWIQTKDGQCGSPLVSTRDGFIVGIHSASNFTNTNNYFTSVPKNFMELLTNQEAQQWVSGWRLNADSVLWGGHKVFMVKPEEPFQPVKEATQL [Q118F], the “area with substrate ENLYFQG” value amounted to 0.11, the “area with substrate ENLYFQH” value worked out at 0.0594, the “area with substrate ENLYFQI” value is 0.0655 and the “area with substrate ENLYFQK” value was 0.0493. For the same variant, the “area with substrate ENLYFQL” value amounted to 0.0599, the “area with substrate ENLYFQM” value is 0.0707, the “area with substrate ENLYFQN” value is 0.0565 and the “area with substrate ENLYFQP” value was determined as 0.0648. Moreover, the “area with substrate ENLYFQR” value came out at 0.0669, the “area with substrate ENLYFQS” value amounted to 0.097, the “area with substrate ENLYFQT” value was found to be 0.0682 and the “area with substrate ENLYFQW” value was 0.0632. Moreover, the “area with substrate ENLYFQY” value was determined as 0.0767.
Consider MGESLFKGPRDYNPISSSICHLTNESDGHTTSLYGIGFGPFIITNKHLFRRNNGTLVVQSLHGVFKVKDTTTLQQHLVDGRDMIIIRMPKDFPPFPQKLKFREPQREERICLVTTNFQTKSMSSMVSDTSCTFPSGDQIFWKHWIQTKDGQCGSPLVSTRDGFIVGIHSASNFTNTNNYFTSVPKNFMELLTNQEAQQWVSGWRLNADSVLWGGHKVFMVKPEEPFQPVKEATQL [G138Q], for which the “area with substrate ENLYFQM” value came out at 0.0842, the “area with substrate ENLYFQN” value amounted to 0.0663, the “area with substrate ENLYFQP” value was determined as 0.0648 and the “area with substrate ENLYFQR” value came to 0.0471. Moreover, the “area with substrate ENLYFQS” value came to 0.0989, the “area with substrate ENLYFQT” value was found to be 0.0576 and the “area with substrate ENLYFQV” value was determined as 0.0773.
As for MGESLFKGPRDYNPISSSICHLTNESDGHTTSLYGIGFGPFIITNKHLFRRNNGTLVVQSLHGVFKVKDTTTLQQHLVDGRDMIIIRMPKDFPPFPQKLKFREPTREERICLVTTNFQTKSMSSMVSDTSCTFPSGDGIFWKHWIQTKDGQCGSPLVSTRDGFIVGIHSASNFTNTNNYFTSVPKNFMELLTNQEAQQWVSGWRLNADSVLWGGHKVFMVKPEEPFQPVKEATQL [Q105T], the “area with substrate ENLYFQI” value was 0.0611, the “area with substrate ENLYFQM” value came out at 0.0912, the “area with substrate ENLYFQR” value is 0.0268 and the “area with substrate ENLYFQS” value was 0.102. For the same variant, the “area with substrate ENLYFQV” value came out at 0.0593, the “area with substrate ENLYFQW” value is 0.0705 and the “area with substrate ENLYFQY” value worked out at 0.0955.
For MGESLFKGPRDYNPISSSICHLTNESDGHTTSLYGIGFGPFIITNKHLFRRNNGTLVVQSLHGVFKVKDTTTLQQHLVDGRDMIIIRMPKDFPPFPQKLKFREPQREERICLVTTNFQTKSMSSMVSDTSCTFPSGDGIFWKHWIQTKDGQCGSPLVSTRDGFIVGIHSASNFTNTNNYFTSVPKNFMELLTNSEAQQWVSGWRLNADSVLWGGHKVFMVKPEEPFQPVKEATQL [Q194S], the “area with substrate ENLYFQG” value came to 0.201, the “area with substrate ENLYFQI” value was determined as 0.0628, the “area with substrate ENLYFQK” value turned out to be 0.0778 and the “area with substrate ENLYFQL” value was 0.0609. The “area with substrate ENLYFQM” value is 0.108, the “area with substrate ENLYFQN” value was 0.0861, the “area with substrate ENLYFQR” value worked out at 0.0412 and the “area with substrate ENLYFQS” value was 0.108. Moreover, the “area with substrate ENLYFQT” value turned out to be 0.0668 and the “area with substrate ENLYFQV” value was determined as 0.0583.
